The full ranking holds about 33,000 sequences; the median of “E-score (-0.5 to 0.5)” is about -0.011, and the highest 2% start at about 0.28. The list shows a part of the results.
The sequences below were run against T1, Gcr1 (UniProt P07261) (assay: PBM E-score (8-mer binding enrichment) (E-score (-0.5 to 0.5)); higher = stronger / more preferred TF binding; most listed sequences are background and not binding sites). Conditions: protein concentration: 100 nM; construct: GST-full length.
T1 sequence: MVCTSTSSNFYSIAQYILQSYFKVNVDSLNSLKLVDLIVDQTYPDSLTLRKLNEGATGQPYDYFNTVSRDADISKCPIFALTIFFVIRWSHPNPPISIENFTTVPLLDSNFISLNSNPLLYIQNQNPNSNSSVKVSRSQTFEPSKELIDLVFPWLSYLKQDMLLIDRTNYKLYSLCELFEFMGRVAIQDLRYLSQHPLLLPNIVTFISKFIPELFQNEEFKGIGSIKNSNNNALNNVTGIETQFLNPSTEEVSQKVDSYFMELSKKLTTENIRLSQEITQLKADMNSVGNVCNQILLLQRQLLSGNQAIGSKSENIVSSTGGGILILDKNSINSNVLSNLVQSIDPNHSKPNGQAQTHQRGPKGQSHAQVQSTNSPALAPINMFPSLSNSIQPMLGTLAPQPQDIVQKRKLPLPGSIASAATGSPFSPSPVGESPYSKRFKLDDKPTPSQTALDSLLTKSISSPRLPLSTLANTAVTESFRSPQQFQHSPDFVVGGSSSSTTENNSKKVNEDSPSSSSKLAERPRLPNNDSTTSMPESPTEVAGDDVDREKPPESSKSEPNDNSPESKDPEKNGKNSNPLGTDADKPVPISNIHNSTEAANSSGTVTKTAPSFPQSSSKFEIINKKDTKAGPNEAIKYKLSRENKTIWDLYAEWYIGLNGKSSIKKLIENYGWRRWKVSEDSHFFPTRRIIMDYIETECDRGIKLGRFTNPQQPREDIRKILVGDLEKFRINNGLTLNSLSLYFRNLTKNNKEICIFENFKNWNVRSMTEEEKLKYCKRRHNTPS
Summary of the method: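 Using PURExpress in vitro transcription/translation, GST-tagged yeast transcription factors were made in full-length or DNA-binding-domain form. These were applied at about 100-200 nM to double-stranded universal all-10-mer Agilent arrays, and bound protein was detected with fluorescent anti-GST. Scans were normalised with masliner before the Universal PBM Analysis Suite assigned E-scores to ungapped eight-base words pooled with their reverse complements.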

Sequence	PBM E-score
GAGGACCC	-0.109
GATGAAGC	-0.0129
TCTACCCA	0.0822
GGCTCGAA	-0.0753
GTCTGGTA	0.0223
CGTATGAC	0.0685
CATGGGTA	0.00548
ATAATCAG	-0.0418
ACATTGTC	-0.0445
AAACCCAC	-0.0238
CGAGTCCC	0.168
CAATAGGG	0.198
ACCTAGCG	-0.26
ATAGCTGG	-0.26
AGGGGCGG	0.15
AAATTTGC	0.109
AAATACTA	0.142
ATTGACAA	-0.129
CCAGCAAA	0.076
TATACCGA	0.025
AAGCCTGC	-0.0352
CACGTAAG	-0.0327

Sequence	PBM E-score
CCGCTGTC	-0.193
CATATGGG	0.0873
CGATGAAA	0.119
AGTAAACG	0.0961
CAAATCAC	-0.062
AGATGCCT	0.17
CATTGTCC	-0.0689
ACATCGTC	0.112
AATACTTC	-0.104
CGTAACCC	0.0924
GCCGTCCC	-0.0711
CCGATTAA	0.149
ACTCGACG	-0.0156
CCTCGGAC	-0.102
GCCTCCGC	0.0664
GTCGCACA	-0.153
GCGCCAAA	0.162
GTTAACAA	0.0556
AACAGTTC	-0.0574
CTCTTTGC	-0.181
GAGAGGTA	-0.101
CAACTTTC	0.0761

Sequence	PBM E-score
CGGTGCAG	0.0337
GGACCCCA	0.115
ACCTCTAC	0.0304
TGCAGGAA	0.213
AAAAACCG	-0.049
ATAGGCTA	-0.0307
CCTAATTC	0.177
CTAGACAC	-0.00777
GTAGATTA	0.0121
ATAGGAGC	0.242
AATTTCGA	-0.0586
GAAGAGAA	0.0371
TATCTGAA	0.133
CTCGACCC	-0.131
AAGACGGA	-0.156
AACTACGA	-0.0767
TCGCCCCA	0.0274
GCTCCTTA	0.0759
TATTGGCA	0.185
CACTAGGA	0.132
AAGCACTA	-0.0626
CTATTATA	0.117

Sequence	PBM E-score
ATGTTAGA	0.0407
CCCGAGCC	0.106
CTAACACA	0.0589
CCACTACC	0.125
GGAGCGCC	0.158
CCTCCGAC	-0.107
CCCAAATC	0.238
CCAGTCCA	-0.135
CATCTGTC	0.00552
AACAGGAA	0.334
AGCAGGTC	-0.162
AGACTGCA	-0.0235
GTTTTAGA	0.0308
CCTAAAGG	0.0292
AGCTGCAG	0.0532
ATCACTCG	0.109
CCAGGATC	0.171
CCGTGCCC	-0.0699
AGCTCCTC	-0.14
AACGATGC	0.0153
ATGTTGAA	0.0777
AGTTTCAA	0.00219

Sequence	PBM E-score
CTCAATGC	0.0559
AAACGAGT	0.139
ACGCAAAT	-0.113
CGTGAAAC	0.187
GTGAGGAA	0.0561
ACAATGAT	0.0664
CGACTTGC	-0.204
TACAGCTA	-0.0983
TCCACGAA	0.141
GACATTAA	0.1
CCCCACGA	-0.0821
CATGAGGA	0.0155
AGTCGGCC	-0.225
GGGTTTAA	-0.0206
CGCACGGC	-0.0722
ATATAAAC	-0.0249
GTCGGTAA	-0.103
AGACAGCG	-0.278
TCGGGCAA	-0.272
GTTGCGAA	0.0274
TAGATATA	0.00474

From the supplement of paper PMC3334620
